Assay results from PubChem BioAssay AID1832 (Broad Institute, 2009).
“And” between values parts separate entries of the source, which are not always exact repeats. Equal entries are not always repeated. Out of some 300,000 compounds screened, about 1,100 (0.37%) were called active. The shares of active, inactive and inconclusive entries below differ from those in the screen.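 Rule for the calls: active = inhibition past about -25% in most replicates, and total fluorescence under double the plate's negative control median (limit read from the data); inconclusive = replicates evenly split on the limit, or fluorescence at least double controls; inactive = too little inhibition in most replicates.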

Biological target: Zinc finger protein mex-5 (Caenorhabditis elegans) (UniProt Q9XUB2)
Experiment: MEX-5 zinc finger RNA-binding disruptors – biochemical, C. elegans, fluorescence polarization, MLPCN library, primary screen (AID 1832);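 note: 0% = DMSO and -100% = 5 µM competing unlabeled TCR2 RNA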
Details: MEX-5/FITC-TCR2 RNA binding, at 10 µM, hits give low values

Chain of UniProt Q9XUB2 (Q9XUB2 whole entry, looked up): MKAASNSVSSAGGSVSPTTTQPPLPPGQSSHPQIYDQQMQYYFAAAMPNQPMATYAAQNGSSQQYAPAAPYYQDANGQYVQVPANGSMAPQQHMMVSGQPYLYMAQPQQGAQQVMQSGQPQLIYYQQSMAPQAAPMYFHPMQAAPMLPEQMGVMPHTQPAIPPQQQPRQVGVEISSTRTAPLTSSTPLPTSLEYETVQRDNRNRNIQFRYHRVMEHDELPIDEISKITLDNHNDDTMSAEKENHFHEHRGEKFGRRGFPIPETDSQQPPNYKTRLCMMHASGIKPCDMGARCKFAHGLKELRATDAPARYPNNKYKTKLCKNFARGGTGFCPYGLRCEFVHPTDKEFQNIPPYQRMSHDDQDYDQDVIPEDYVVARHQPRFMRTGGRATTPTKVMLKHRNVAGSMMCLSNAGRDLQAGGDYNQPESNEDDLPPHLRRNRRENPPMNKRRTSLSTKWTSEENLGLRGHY

Activity score (negative = inhibition of binding), inactive:
CCc1nnc(NC(=O)c2sc3nc4c(cc3c2N)CCCCC4)s1 0.211%, CCOC(=O)C1C(=O)CC(C)(O)C(C(=O)OCC)C1c1ccc2c(c1)OCO2 (centres undefined) -1.32%, CCCCOc1ccc(NC(=O)CCSc2nccn2C)cc1 3.23%, COC(=O)c1ccc(S(=O)(=O)N2CCC(C(N)=O)CC2)n1C -0.143%, CC(NC(=O)CCCc1nnc2n(C)c(=O)c3sccc3n12)c1ccccc1 (centres undefined) 1.27%, CC(CCc1ccccc1)NC(=O)CCCn1ncn2c(cc3occc32)c1=O (centres undefined) -1.27%, FC(F)Sc1ccc(NC(=S)NC2CCC(NC(=S)Nc3ccc(SC(F)F)cc3)CC2)cc1 (centres undefined) 0.343%, CCCC(C(=O)NC1CCCC1)N(C(=O)Cn1nnc(-c2ccc(C)o2)n1)c1ccccc1OC (centres undefined) -0.402%, COc1cc2c(cc1OC)CN(C1CCC(C)CC1)CC2 (centres undefined) 0.635%, Cc1ccc(C(=O)Nc2c3c(nn2C(C)(C)C)CS(=O)(=O)C3)cc1C 3.43%, NC1=C(c2ccccc2)C(=O)NC1=O 4.06%, COc1cccc(C(=O)Nc2ccc(NC(C)=O)cc2)c1 0.558%, C#C[C@]1(O)CC[C@H]2[C@@H]3CCc4cc(O)ccc4[C@H]3CC[C@@]21C -9.1%, COc1ccccc1CCN1CCCC(CN(C)Cc2ccc(OCCO)cc2)C1 (centres undefined) -0.051%, Cc1ccc(C(=O)Nc2cccc3ccccc23)cc1 -1.98%, O=C(Nc1nc2c(Br)cccc2s1)C1CC1 -1.47%, CC(=O)Nc1ccc(S(=O)(=O)NCc2nc(-c3ccc(C)cc3)no2)cc1 -0.681%, O=C(O)c1cc(Nc2cc(Cl)c3nonc3c2[N+](=O)[O-])ccc1O -14.2%, Cc1cc(NC(=O)c2ccc(S(=O)(=O)N3CCOCC3)cc2)no1 -5.46%, Cc1c(OCC(=O)N2CCC(C(=O)O)CC2)ccc2c1oc(=O)c1ccccc12 -0.512%, CC(=O)C1=C(C)NC(=O)NC1c1ccc(Cl)cc1 (centres undefined) -1.28%, O=c1c2ccccc2nc(-c2ccccc2)n1CCN1CCOCC1 -2.17%, COc1cccc(Oc2c(C)oc3c(CN4CCCC4)c(O)ccc3c2=O)c1 1.25%, C(/C=C/c1ccccn1)=C\c1ccccc1 1.4%, Cc1sc(NC(=O)CN2C(=O)NC3(CCCC3)C2=O)nc1-c1ccc(F)cc1 -0.598%, Nc1nc(C2CC(=O)OC23CCCCC3)cs1 (centres undefined) -1.55%

Activity score (negative = inhibition of binding), inconclusive:
Cn1nc(C(F)(F)F)cc1-c1ccc(/C=C(\C#N)C(=O)c2ccccc2)s1 -20.4%, O=c1/c(=C\c2ccc(O)cc2)sc2nc(-c3ccccc3)c(-c3ccccc3)n12 -23.6%, COc1ccc(/C=C2/C(=O)N(CC3CCCO3)C(=S)N2C)c(OC)c1 (centres undefined) -73.8% [fluorescent], Cc1ccc(/C(O)=C/c2nc3ccccc3oc2=O)cc1 -24%, Cc1ccc(/C=C/C(=O)c2ccc(N3CCOCC3)cc2)s1 -18.7%, N#C/C(=C\c1ccc(N2CCOCC2)o1)C(=O)N1CCOCC1 71.7% [fluorescent], COc1ccc(C(=O)Nc2nnc(CC(=O)N/N=C/c3ccc(O)cc3O)s2)cc1 -24.3%, Cc1n[nH]c(C)c1Sc1ccccc1N=Cc1cc([N+](=O)[O-])ccc1O -120% [fluorescent], Cc1ccccc1-n1c(O)c(/C=C/C=Nc2ccccc2)c(=O)[nH]c1=O 78.5% [fluorescent], COc1cc(/C=N\Nc2ccc([N+](=O)[O-])cc2)ccc1OCC(=O)Nc1ccc(C)c(C)c1 -22.5%, O=C(N=C1SC2CS(=O)(=O)CC2N1c1ccccc1)C1CC1 (centres undefined) -19.9%, O=C1c2ccccc2C(=O)C1c1ccc2ccccc2n1 -19.1%, CCCN1C=CC(=C/C=C(\C#N)C(=O)OCC)C=C1 79.8% [fluorescent], Cc1cccc2cc3c(N)c(C(=O)Nc4ccc(N5CCOCC5)cc4)sc3nc12 -23.5%, C=CCn1c(C)c(/C=C/c2cc[n+](C)cc2)c2ccccc21 73.1% [fluorescent], Cc1ccc(NC(=O)Cn2c(=O)c(C)nc3ccccc32)cc1 -23%, COC(=O)c1sccc1NC(=O)c1ccc(C)s1 -22.2%, Cc1cc2c3c(c1)C(C)CC(C)(C)N3C(=O)C2=O (centres undefined) -19.3%, O=C(Nc1nnc(-c2ccc(F)cc2)o1)c1cc(Cl)sc1Cl -15.3%, CCOc1ccccc1NC(=O)Nc1ccc(OC)nc1 -24.8%, CN1CCC2(CC1)C1CN(C)CC=C1C(C#N)=C(N)C2(C#N)C#N (centres undefined) -103% [fluorescent] and -79.1% [fluorescent], COc1ccccc1-[n+]1c(C)cc(/C=C2\Sc3ccccc3N2C)cc1C 24% [fluorescent], N#Cc1cc(NC2CCCC2)c([N+](=O)[O-])cc1C#N -22.1%, CCOP(=O)(OCC)C(Nc1cccc([N+](=O)[O-])c1)c1ccccc1 (centres undefined) -11.6%, O=c1c2ccccc2nc(N/N=C/c2ccc(O)cc2)n1O -23.6%, CCCCCCN1C=CC=C/C1=C/C=C(C#N)C#N -14%, Cc1ccc(C(=O)Oc2oc(-c3ccccc3)nc2C=Nc2ccc(N(C)C)cc2)cc1 -5.61%, CC(C)N1CCc2c(sc(N)c2C#N)C1 -1.21% [fluorescent], COc1ccc(C2C=C(c3ccc(Br)s3)Nc3ncnn32)cc1OC (centres undefined) -16.7%, CC1(C)CC(=O)C2=C(C1)OC1=C(C(=O)CC(C)(C)C1)C2c1ccc(O)cc1O -101% [fluorescent], O=C1C(=Cc2cccn2-c2ccccc2)C(=O)c2ccccc21 -25.3%, COc1ccc(C2C=C(c3ccc(Br)cc3)Nc3nc(NS(C)(=O)=O)nn32)cc1 (centres undefined) -92.8% [fluorescent], CO[C@H]1O[C@H](CBr)[C@@H](OC(=O)c2ccccc2)[C@H](O)[C@H]1O -18.2%, Cc1ccc(N=Cc2cc(Br)cc(Cl)c2O)cc1 -16.2%, COC(=O)c1ccc(N2NC(=O)/C(=C/c3ccc(-c4ccc(Cl)c(C(=O)O)c4)o3)C2=O)cc1 -24.5%, COc1cc(N=Cc2c(O)c3ccccc3oc2=O)c(OC)cc1Cl -3.51%, COc1ccc(/C=C2\N=C(C)OC2=O)cc1OC -19.9%, O=C(NC(=S)NNS(=O)(=O)c1ccccc1)c1cccnc1 -21.6%, Cc1ccc(-n2[nH]c(C)c(/C=N/NC(=O)c3ccc(O)cc3O)c2=O)cc1 -17.7%, NC(=O)c1ccc2c(=O)c(O)c(-c3cc(Cl)c(N)c(Cl)c3)[nH]c2c1 -75.1% [fluorescent], Cn1c(=O)c2[nH]c(-c3ccccc3)c(O)c2n(C)c1=O -21.5%, Oc1[nH]c2ccccc2c1N=Nc1cccc(Cl)c1 -25.1%, Nc1c(C(=O)Nc2ccccc2F)sc2nc(Cc3ccccc3)cc(C(F)(F)F)c12 -122% [fluorescent], O=C1N=C(N2CCOCC2)S/C1=C\c1ccc(-c2ccccc2Cl)o1 -16.5%, COc1ccccc1N1C(=O)C2C(C(=O)c3ccccc3)=NN(c3ccc(Br)cc3)C2C1=O (centres undefined) -88.1% [fluorescent]

Activity score (negative = inhibition of binding), active:
CS(=O)(=O)Nc1nc2n(n1)C(c1ccccc1)C=C(c1ccc(Br)cc1)N2 (centres undefined) -68.8%, COC/C=C/C1=CC2=CC(=O)C(C)(O)C(=O)C2=CO1 (centres undefined) -47.4%, CC1=Nc2ccc(C)cc2/C1=C/c1c(N)n2nc(CC(=O)N3CCOCC3)sc2nc1=O -51.8%, COc1cccc(F)c1C(=O)NC(=O)Nc1ccc2nc(C)oc2c1 -30.6%, COCCn1c(=N)c(S(=O)(=O)c2ccc(Br)cc2)cc2c(=O)n3ccccc3nc21 -45.1%, Cc1nc(-c2ccc(O)c(O)c2)cs1 -51.2%, Cc1cc(C(=O)N/N=C/c2ccc(-c3cccc(Cl)c3Cl)o2)n[nH]1 -38.1%, O=C(O)CCC(=O)NNc1nc(-c2ccccc2)c2cc(Cl)ccc2n1 -44.2%, O=C(O)c1cc(O)c2c(c1)[C@@H]([C@H]1c3cc(C(=O)O)cc(O)c3C(=O)c3c(O[C@@H]4O[C@H](CO)[C@@H](O)[C@H](O)[C@H]4O)cccc31)c1cccc(OC3O[C@H](CO)[C@@H](O)[C@H](O)[C@H]3O)c1C2=O (some centres undefined) -100%, Fc1ccc(-c2nc3c(Cl)cc(C(F)(F)F)cn3c2Cl)cc1 -26.1%, COc1ccc(S(=O)(=O)Nc2cc(SCC(=O)O)c(O)c3ccccc23)cc1 -53.1%, CC1CC(=O)c2c(cc3c(-c4c(O)cc(O)c5c(O)c6c(cc45)OC(C)CC6=O)c(O)cc(O)c3c2O)O1 (centres undefined) -34.8%, CCOc1ccc(N=Nc2c(=O)[nH]n3c(=O)cc(C)[nH]c23)cc1 -51%
